Here are results for 115 sequences from the BET-seq Pho4 binding data (Le et al. 2018).

The other results are listed elsewhere or left out. The energies were worked out here from pooled read counts, against the library average; single values are noisy.

The assay addresses T1, Pho4 (S. cerevisiae) (UniProt P07270).
T1 sequence: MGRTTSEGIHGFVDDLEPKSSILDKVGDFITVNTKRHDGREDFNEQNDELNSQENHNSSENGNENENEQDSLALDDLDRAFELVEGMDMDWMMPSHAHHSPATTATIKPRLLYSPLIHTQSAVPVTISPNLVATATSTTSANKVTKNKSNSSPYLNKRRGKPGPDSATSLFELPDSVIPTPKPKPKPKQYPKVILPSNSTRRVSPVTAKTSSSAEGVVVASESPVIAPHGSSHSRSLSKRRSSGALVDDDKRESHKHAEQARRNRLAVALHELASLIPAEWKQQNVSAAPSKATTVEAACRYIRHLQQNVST
The assay can be described thus: relative binding free energy (BET-seq); higher = weaker binding. The conditions noted are these: reference: library average.
Regarding AGATTCACGTGTTAAG, the “relative binding free energy” value was found to be 0.962 kJ/mol. The value for TGGTACACGTGGTATG was -0.586 kJ/mol. The value for GACTTCACGTGGGAGG was 0.711 kJ/mol; that for TAGTCCACGTGGTTAG was -0.126 kJ/mol; that for ATTTGCACGTGTGGGA was 0.251 kJ/mol. The value for AAATGCACGTGGAGTA was 0.126 kJ/mol; that for ATGGGCACGTGGAAAG was 0.0418 kJ/mol; that for TCTGACACGTGTAAGT was 0.669 kJ/mol. For the sequence GGCTGCACGTGCGGGA, the “relative binding free energy” value was -0.126 kJ/mol. For the sequence AGGCGCACGTGAGAGA, the “relative binding free energy” value turned out to be 1.17 kJ/mol. Take CGTGTCACGTGGAGAT: the “relative binding free energy” value was determined as 0.837 kJ/mol. The value for AACTTCACGTGTTATT was 0.669 kJ/mol; that for TTGGGCACGTGTGCTC was -0.586 kJ/mol; that for TCTGTCACGTGTGGAG was 0.628 kJ/mol.

Turning to GGGAACACGTGTTTGG, the “relative binding free energy” value came out at 0.0418 kJ/mol. With GGTGTCACGTGGGTAG, the “relative binding free energy” value was -0.167 kJ/mol. The value for TGAGGCACGTGATTGC was 0.209 kJ/mol. Next, TATAACACGTGGTGGC: 0.0418 kJ/mol; TGGAGCACGTGTTTTA: -0.293 kJ/mol. Next, TTTTCCACGTGGTTTC: 0.711 kJ/mol.

On to AGACTCACGTGGCGGG, for which the “relative binding free energy” value amounted to 0.711 kJ/mol. For the sequence GGTGACACGTGTTGAG, the “relative binding free energy” value is 0.669 kJ/mol.

Regarding TGTTCCACGTGGTAAG, the “relative binding free energy” value is 0.0418 kJ/mol. Regarding CGGGGCACGTGTCAGG, the “relative binding free energy” value is -0.628 kJ/mol.

With CTGGTCACGTGTGAGT, the “relative binding free energy” value stood at 0.167 kJ/mol. CGTGTCACGTGGCGAG: the “relative binding free energy” value came to 0.0837 kJ/mol. In the case of TTAGCCACGTGTTTAT, the “relative binding free energy” value was -0.0418 kJ/mol. With TTAAGCACGTGATTTG, the “relative binding free energy” value amounted to 0.293 kJ/mol. On to AATTACACGTGGATGG, for which the “relative binding free energy” value stood at 0.962 kJ/mol. Take GACGGCACGTGGGTTG: the “relative binding free energy” value is -0.711 kJ/mol. Next, AATTACACGTGTGTAT: 0.502 kJ/mol; ATATACACGTGTTAGA: 0.126 kJ/mol; TAAGTCACGTGGGGTT: -0.377 kJ/mol. The value for TGGTGCACGTGTAGAA was 0.418 kJ/mol. The value for TGGTACACGTGAGTTG was 0.628 kJ/mol. As to TATGCCACGTGTCGTG, the “relative binding free energy” value was -0.586 kJ/mol. With AATTACACGTGGGATA, the “relative binding free energy” value is 0.418 kJ/mol.

For the sequence AATGTCACGTGGTGAA, the “relative binding free energy” value turned out to be 0.209 kJ/mol. As for ATCTTCACGTGTGGGG, the “relative binding free energy” value turned out to be 0.753 kJ/mol. As for CTTTGCACGTGTATTT, the “relative binding free energy” value was determined as 0.377 kJ/mol. Next, AGAGGCACGTGTTTAG: -0.377 kJ/mol; CCTTACACGTGTTGTG: 0.46 kJ/mol; AGGAGCACGTGGTTGA: -0.251 kJ/mol. TGATTCACGTGAGAGC: the “relative binding free energy” value worked out at 2.01 kJ/mol. The value for GGAAGCACGTGCAAGG was 0.126 kJ/mol.

ATGGTCACGTGCGTAT: the “relative binding free energy” value is -0.0418 kJ/mol.

Consider TAGGACACGTGGGGCC, for which the “relative binding free energy” value was -0.377 kJ/mol. Next, GGTGCCACGTGAGTAG: 0.628 kJ/mol; ACTTACACGTGGTGTG: -0.0418 kJ/mol; TACGGCACGTGGTTGT: -0.962 kJ/mol. For GTGGGCACGTGTAAAG, the “relative binding free energy” value was 0.335 kJ/mol. Regarding AGGGCCACGTGGATGT, the “relative binding free energy” value is -1.05 kJ/mol. The value for TGTTTCACGTGTGCTT was 1.26 kJ/mol; that for TAATTCACGTGAATAT was 1.42 kJ/mol. The value for ATGGTCACGTGTTAGG was 0.418 kJ/mol; that for GTGGGCACGTGATGCG was 0.126 kJ/mol. Turning to AGAAGCACGTGTGGTC, the “relative binding free energy” value is -0.0837 kJ/mol. The value for CGTATCACGTGGGTAT was -0.0418 kJ/mol. The value for TATGACACGTGAGGGA was 0.711 kJ/mol. The value for GTCGGCACGTGGTCTG was -0.92 kJ/mol; that for CAGGACACGTGGTGTG was -0.669 kJ/mol; that for TTATCCACGTGGTCTT was 0 kJ/mol. Consider AGGATCACGTGTCTGG, for which the “relative binding free energy” value worked out at 0.544 kJ/mol. Regarding AATCACACGTGTGTGG, the “relative binding free energy” value came out at 0.418 kJ/mol. Turning to GGTGGCACGTGATACT, the “relative binding free energy” value came to 0.335 kJ/mol.

In the case of TCGTGCACGTGACTGG, the “relative binding free energy” value was found to be 0.711 kJ/mol. In the case of GTTGTCACGTGGCTAC, the “relative binding free energy” value came out at 0.92 kJ/mol. Next, GGTTGCACGTGCTTGT: -0.0837 kJ/mol. On to TACGGCACGTGAATGG, for which the “relative binding free energy” value turned out to be 0.251 kJ/mol. The value for ATGGACACGTGGTCTT was -0.46 kJ/mol.

TTGATCACGTGGACAG: the “relative binding free energy” value was determined as 1 kJ/mol. In the case of CTTTCCACGTGGTGGT, the “relative binding free energy” value is -0.126 kJ/mol. For ATGGTCACGTGGAAGC, the “relative binding free energy” value worked out at 1 kJ/mol. In the case of TGGGTCACGTGCCGCT, the “relative binding free energy” value came out at 0.628 kJ/mol. For GTAGTCACGTGCGAGG, the “relative binding free energy” value worked out at 0.544 kJ/mol.

As for AATTTCACGTGAGCTG, the “relative binding free energy” value was found to be 1.51 kJ/mol.

Take TGTGACACGTGAGGAT: the “relative binding free energy” value was 0.586 kJ/mol. The value for TATCACACGTGTTGGT was 0.126 kJ/mol; that for AAGTGCACGTGGGTAG was -0.544 kJ/mol; that for CATTTCACGTGAAGGG was 1.84 kJ/mol. For the sequence GAGGGCACGTGCGGTT, the “relative binding free energy” value was -0.377 kJ/mol. Next, GTATGCACGTGTCATG: 0.126 kJ/mol; GGGGACACGTGGGAGA: -0.335 kJ/mol. The value for TTACTCACGTGGTTTA was 0.46 kJ/mol; that for ATTTACACGTGGTTGG was 0.418 kJ/mol; that for GCAGTCACGTGTGGTT was 0.837 kJ/mol. Turning to TTAAACACGTGGTATG, the “relative binding free energy” value is -0.544 kJ/mol. The value for AGTAACACGTGCGGTG was -0.167 kJ/mol; that for GGCTCCACGTGGGTGT was 0.502 kJ/mol; that for GATTTCACGTGGTCAT was 1.46 kJ/mol. For ATGTTCACGTGGGCGT, the “relative binding free energy” value worked out at 0.251 kJ/mol. The value for TGGGACACGTGTATAG was 0.879 kJ/mol; that for GGATTCACGTGGGCTA was 1.17 kJ/mol; that for ACGGGCACGTGTTCGG was -0.879 kJ/mol. Take TTGCACACGTGGTATA: the “relative binding free energy” value is -0.335 kJ/mol.

For the sequence GGTAGCACGTGGTCGG, the “relative binding free energy” value was -0.837 kJ/mol. With CGTGCCACGTGGGCGG, the “relative binding free energy” value was -1.05 kJ/mol. Next, CGGTTCACGTGGTCAG: 0.962 kJ/mol. Next, GAGGCCACGTGAGGGG: 0.586 kJ/mol; TTGGTCACGTGTCGAA: 1 kJ/mol.

GCTAGCACGTGTTTGG: the “relative binding free energy” value amounted to 0.0418 kJ/mol. The value for GGTAACACGTGTGCAT was 0.753 kJ/mol.

As for CGCGGCACGTGGACGG, the “relative binding free energy” value was -0.293 kJ/mol. As to TTTTTCACGTGGTGCA, the “relative binding free energy” value turned out to be 0.795 kJ/mol. Next, ATGTTCACGTGGGCGA: 0 kJ/mol; GAGTGCACGTGGAGGA: 0.0418 kJ/mol; ATGTTCACGTGGCACG: 1.38 kJ/mol.

For ATTTGCACGTGCTTAT, the “relative binding free energy” value is -0.167 kJ/mol.

Regarding CTTGCCACGTGTTGTT, the “relative binding free energy” value was -0.335 kJ/mol. Next, GTGAACACGTGGCATT: -0.0418 kJ/mol. For the sequence TGTGTCACGTGATATC, the “relative binding free energy” value came to 1.46 kJ/mol. As for TGGATCACGTGATGTT, the “relative binding free energy” value amounted to 1 kJ/mol.

GCGTACACGTGGGTAT: the “relative binding free energy” value was -0.46 kJ/mol. AATGGCACGTGTAGCT: the “relative binding free energy” value was -0.251 kJ/mol.

Regarding CTTTACACGTGTTCGT, the “relative binding free energy” value was 0.377 kJ/mol.
